Source: PubChem BioAssay AID1466 (National Center for Advancing Translational Sciences (NCATS), 2008)
The campaign covered roughly 200,000 compounds. About 10 (0.005%) were called active. Inconclusive results, whose numbers are uncertain, are shown with a selection of clear calls. Calls come from the whole dose curve; as a rule, active = well fitted inhibition curve with a large enough effect; inconclusive = small, poorly fitted or top-dose-only effect, or effect the other way, or another doubt; inactive = no such curve, though single readings can be large or run the other way. Potencies of inconclusive entries are doubtful fits and often do not repeat.

biological target: Lysosomal alpha-glucosidase (Homo sapiens) (UniProt P10253); assay: qHTS Assay for Inhibitors of Human alpha-Glucosidase as a Potential Chaperone Treatment of Pompe Disease; settings: purified human GAA, 4-MU-alpha-glucoside fluorescence; activity change, negative = inhibition: at 76.9 µM (top of the series) unless noted;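 for activity change, negative = inhibition: plate controls were uninhibited enzyme wells for no effect and no-enzyme background for full effect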
Method in brief: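 Enzyme (4 nM final) mixed with compound (up to 77 uM), then 4-MU-alpha-D-pyranoside (400 uM final) added; 20 min at room temperature, pH 5.0. Reaction stopped at pH 10, fluorescence read, AC50 derived by Hill fit.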
Potency is the fitted concentration of half-maximal effect; tags give direction and shape of the fitted curve.

Row | Structure (SMILES) | Potency | activity change, negative = inhibition
1 | CCOc1ccc(NC(=O)c2cc(SC)ccc2Cl)cc1 | inconclusive: 0.158 µM [inhibitor, full curve, poor fit] | –
2 | CCN(CC)S(=O)(=O)c1ccc(N=Nc2c(C)[nH]n(C(N)=S)c2=O)cc1 | inconclusive: 31.6 µM [inhibitor, single point] | –
3 | COc1cc(OC)cc(-c2nnc(Nc3nc4c(F)cccc4s3)o2)c1 | inconclusive: 3.55 µM [activator, full curve] | –
4 | Cc1cccc(N/C(N)=N/c2nc(C)c(Cc3ccccc3)c(=O)[nH]2)c1 | – | inconclusive: 18.8% [activator]
5 | CCOC(=O)N1CCC(NC(=O)CCC(=O)N2CC(C)Oc3ccccc32)CC1 (centres undefined) | inconclusive: 22.4 µM [inhibitor, single point] | –
6 | CCCNCC1C(Oc2ccc(Cl)cc2Cl)C(=O)N1c1cccc(C)c1C (centres undefined) | inconclusive: 22.4 µM [inhibitor, single point] | –
7 | CCOC(=O)c1cccc(-n2c(-c3ccc(OC)cc3)nc3nc4ccccc4nc32)c1 | inconclusive: 5.01 µM [activator, full curve] | –
8 | Oc1ccc(N2CCN(c3ncnc4sc5c(c34)CCC5)CC2)cc1 | – | inactive: -0.311%
9 | FC(F)(F)c1cccc(Sc2cc(C(F)(F)F)nc(-c3ccccn3)n2)c1 | inconclusive: 39.8 µM [inhibitor, single point] | –
10 | CCCN(CCC)C(=O)CC(c1ccc(F)cc1)c1ccco1 (centres undefined) | – | inconclusive: -16.6% [inhibitor]
11 | O=C(N/N=C/c1cccnc1)c1cc(-c2cccs2)nc2ccccc12 | inconclusive: 50.1 µM [inhibitor, single point] | –
12 | Cc1cc(C(=O)OCC(=O)N2c3ccccc3CC2C)c(C)o1 (centres undefined) | inconclusive: 15.8 µM [inhibitor, partial curve] | –
13 | CCc1cc(C(=O)c2ccc(OC)cc2)c(NC(=O)CN2CCCC2)s1 | inconclusive: 56.2 µM [inhibitor, single point] | –
14 | Cc1cc(C)c(CSc2ncc(-c3ccc([N+](=O)[O-])cc3)[nH]2)c(C)c1 | – | inconclusive: -17.2% [inhibitor]
15 | Cc1nnc(NC(=O)CSc2cn(Cc3ccccc3)c3ccccc23)s1 | inconclusive: 25.1 µM [inhibitor, partial curve] | –
16 | Cc1cccc(NS(=O)(=O)c2cc([N+](=O)[O-])ccc2C)n1 | – | inconclusive: 9.67% [activator]
17 | CCc1ccc(NC(=O)c2noc(C(C)C)c2[N+](=O)[O-])cc1 | inconclusive: 25.1 µM [inhibitor, single point] | –
18 | CC1CCCCN1C(=O)CNCC1CCCO1 (centres undefined) | – | inconclusive: 15.7% [activator]
19 | COc1ccc(Nc2nc(C(=O)N3CCc4ccccc4C3)cs2)cc1 | – | inconclusive: 17.1% [activator]
20 | CC(=O)NCC1CCCN(Cc2cn(-c3ccccc3F)nc2-c2cc(C)sc2C)C1 (centres undefined) | inconclusive: 50.1 µM [inhibitor, single point] | –
21 | CCOC(=O)C1(CC2CC2)CCN(C(=O)c2cccnc2C)CC1 | – | inconclusive: 18.6% [activator]
22 | Cc1ccc(NS(=O)(=O)c2cc([N+](=O)[O-])ccc2NNC(=S)Nc2cc(C)ccc2C)c(C)c1 | – | inactive: -10.9%

Row | Structure (SMILES) | Potency | activity change, negative = inhibition
23 | CN(CC(=O)NC(=O)NCc1ccccc1)Cc1ccc(Cl)c(Cl)c1 | – | inconclusive: -16.3% [inhibitor]
24 | Cc1cccc2cc(CN(Cc3nnnn3C3CCCCC3)C3CCCC3)c3nnnn3c12 | inconclusive: 0.501 µM [inhibitor, partial curve, poor fit] | –
25 | CN(C(=O)CS(=O)(=O)Cc1ccccc1Cl)c1ccccc1 | – | inconclusive: 19.4% [activator]
26 | CC(C)c1nc(N2CCCC2)c(C#N)c2c1CCCC2 | inconclusive: 35.5 µM [activator, single point] | –
27 | O=C(Nc1cc(=O)[nH]c(=O)[nH]1)c1cccc(Br)c1 | inconclusive: 56.2 µM [inhibitor, single point] | –
28 | CC1=[N+](CC(=O)c2ccccc2)CCn2cccc21 | inconclusive: 11.2 µM [inhibitor, single point] | –
29 | CCOC(=O)C1=C(CN2CCCCCC2)NC(=O)NC1c1cccc([N+](=O)[O-])c1 (centres undefined) | inconclusive: 14.1 µM [inhibitor, partial curve] | –
30 | COc1cccc(CNn2cn[nH]c2=S)c1OCc1ccccc1 | – | inconclusive: 11.5% [activator]
31 | CCOC(=O)c1c(NC(=O)C(C)Sc2cccc[n+]2[O-])sc2c1CCN(Cc1ccccc1)C2 (centres undefined) | inconclusive: 50.1 µM [activator, single point] | –
32 | Cc1cccc(OCCC(=O)NCC(=O)Nc2cccc(C)c2C)c1 | – | inactive: 7.56%
33 | COc1cc(-c2nc3ccc(C)cn3c2Nc2ccc3c(c2)OCCO3)ccc1O | inconclusive: 0.282 µM [inhibitor, full curve, poor fit] | –
34 | CCOC(=O)c1ccc(NC(=O)NC2CC3CCC(C2)N3Cc2nnnn2C(C)(C)C)cc1 (centres undefined) | inconclusive: 56.2 µM [inhibitor, single point] | –
35 | CC1=C(C(=O)N2CCCC(CCC(=O)NCc3ccc(F)c(F)c3)C2)OCCO1 (centres undefined) | inconclusive: 12.6 µM [inhibitor, partial curve] | –
36 | O=C(Nc1ccccc1N1CCN(c2ccccc2)CC1)c1ccccc1F | – | inconclusive: 8.28% [activator]
37 | Cc1nnc(NC(=O)C2C3C=CC(O3)C2C(=O)O)s1 (centres undefined) | inconclusive: 0.891 µM [inhibitor, single point] | –
38 | Cc1ccccc1NC(=O)c1cccc(S(=O)(=O)Oc2ccc([N+](=O)[O-])cc2)c1 | inconclusive: 5.01 µM [inhibitor, full curve, poor fit] | –
39 | COc1ccc2cc3cc(C(=O)NCCN4CCc5ccccc5C4)sc3nc2c1 | inconclusive: 2.24 µM [activator, partial curve] | –
40 | COc1cc(O)c2c(c1)OC(C)(C)CC2=O | – | inactive: 2.12%
41 | COCCn1cc(C(=O)N2CCN(C)CC2)c2c3ccccc3n(C)c2c1=O | inconclusive: 35.5 µM [activator, partial curve] | –
42 | CN(C(=O)COC(=O)c1ccc2c(c1)OCCO2)c1ccccc1 | inconclusive: 1 µM [inhibitor, full curve, poor fit] | –
43 | Cn1c(N)c(C(=O)COC(=O)COc2ccc3ccccc3c2)c(=O)n(C)c1=O | inconclusive: 50.1 µM [inhibitor, single point] | –
44 | Cc1ccccc1CN1CCN(Cc2ccccc2C(F)(F)F)CC1 | inconclusive: 2.82 µM [inhibitor, full curve] | –

Row | Structure (SMILES) | Potency | activity change, negative = inhibition
45 | Cc1ccc(C)c(NC(=S)NNC(=O)c2csc3c2CCC(C)C3)c1 (centres undefined) | inconclusive: 50.1 µM [inhibitor, single point] | –
46 | O=C(CSc1nc(-c2ccccc2)nn1C(=O)c1ccccc1)Nc1cccc([N+](=O)[O-])c1 | – | inconclusive: 9.07% [activator]
47 | COc1ccccc1CC(=O)NN1C(=O)c2ccccc2C1=O | inconclusive: 0.794 µM [inhibitor, single point] | –
48 | CCc1ccc2c(c1)c1nc(C)sc1n2CC(=O)OC | inconclusive: 1.41 µM [inhibitor, single point] | –
49 | CC(C)n1c(=O)[nH][nH]c1=S | – | inconclusive: -18.4% [inhibitor]
50 | COC(=O)[C@H](CCSC)NC(=O)NCCc1ccccc1F | inconclusive: 56.2 µM [inhibitor, single point] | –
51 | c1ccc(Cn2c3ccccc3c3nnc(SCCN4CCCCC4)nc32)cc1 | – | inconclusive: -16.1% [inhibitor]
52 | N=c1ncn(Cc2ccccc2)c2nc(SCCOc3ccccc3)[nH]c12 | inconclusive: 56.2 µM [inhibitor, single point] | –
53 | COC(=O)c1ccc(S(=O)(=O)c2ccccc2)c(N)c1 | inconclusive: 35.5 µM [activator, single point] | –
54 | COc1ccc(-c2nn3c(C4CCCCC4)nnc3s2)cc1OC | – | inconclusive: 8.31% [activator] [at 15.4 µM]
55 | O=C(Nc1ccncc1)c1cc(-c2ccccn2)nc2ccc(Br)cc12 | – | inconclusive: 10% [activator]
56 | CC(=O)c1ccc(N2CCN(C(=O)c3cc4c(-c5ccccc5F)nn(C)c4s3)CC2)cc1 | inconclusive: 50.1 µM [inhibitor, partial curve, poor fit] | –
57 | COc1ccc(CN2CCCC(CNC(=O)c3ccc(F)cc3)C2)cc1OC (centres undefined) | inconclusive: 50.1 µM [inhibitor, single point] | –
58 | O=C(CSc1nnc2c(n1)[nH]c1ccccc12)Nc1ccc(N2CCOCC2)cc1 | inconclusive: 0.631 µM [inhibitor, full curve, poor fit] | –
59 | COc1ccc(NC(=O)c2cccc(C(=O)Nc3ccc(OC)cc3)n2)cc1 | inconclusive: 5.62 µM [inhibitor, full curve, poor fit] | –
60 | COc1ccc(C)cc1NC(=O)C(Sc1nnc(-c2ccncc2)n1-c1ccc(Cl)cc1)c1ccccc1 (centres undefined) | – | inconclusive: -15.3% [inhibitor]
61 | Cc1cc(NC(=O)COC(=O)C2COc3ccccc3O2)no1 (centres undefined) | inconclusive: 11.2 µM [inhibitor, single point] | –
62 | CN1CCN(c2ccc(S(=O)(=O)N3CCCCC3)cc2NC(=O)Cc2ccc(Cl)cc2)CC1 | inconclusive: 17.8 µM [inhibitor, partial curve, poor fit] | –
63 | Cc1nc2c(N=Nc3ccccc3F)c(N)nn2c(N)c1C#N | inconclusive: 31.6 µM [inhibitor, single point] | –
64 | Cc1nn(C(=O)c2cccnc2)c(C)c1Sc1ccccc1 | inconclusive: 39.8 µM [inhibitor, single point] | –
